# Screen size: about 230,000 compounds; about 1,500 (0.65%) were called active. Inconclusive means that the source gave no clear call. Such entries were picked first, then a sample of the others. Calls follow the shape of the dose curve; as a rule, active = well fitted inhibition curve with a large enough effect; inconclusive = small, poorly fitted or top-dose-only effect; inactive = no such curve, though single readings can be large or run the other way. Potencies of inconclusive entries are doubtful fits and often do not repeat.
# Target: Lethal(3)malignant brain tumor-like protein 1 (Homo sapiens) (UniProt Q9Y468)
# Assay: qHTS Assay for the Inhibitors of L3MBTL1; also: nearly all actives have a fitted effect of over 60% in size
# Conditions: AlphaScreen L3MBTL1–H3K9me1 peptide binding; series mostly up to 57.1 µM
# Source text: The histone code is comprised of many post-translational modifications that occur mainly in histone tail peptides. The identity and location of these marks are read by a variety of histone binding proteins that are emerging as important regulators of cellular differentiation and development and are increasingly being implicated in numerous disease states. Small molecule probes that disrupt the interaction between histone binding proteins and chromatin would enable a systematic chemical biology study of proteins that read the histone code and could potentially reveal new targets for drug discovery. However, no such small molecules are known. This dearth of quality molecular probes can largely be attributed to the novelty of the target class and the lack of screening assays. This proposal details the development of the first high-throughput screening assay for the discovery of inhibitors of methyl-lysine binding proteins and how it can be be used to initiate a full-scale discovery effort for antagonists of histone binding proteins. Specifically, this work focuses on an AlphaScreen(tm)-based HTS assay for Malignant Brain Tumor (MBT) domain-containing proteins, which bind to the lower methylation states of lysine residues present in histone tail peptides.
# To each well, 2 uL of L3MBTL1 protein (final 50 nM) and 1 uL biotinylated histone peptide monomethylated at Lys9 [b-AHA-H3(1-15)K9me1] (final 75 nM) was added using a nanoliter dispenser. Formation of a protein-peptide complex proceeded at room temperature for 30 min. A Kalypsys pin-tool was employed to transfer 23 nL of library compound solution in DMSO to each well. Cefsulodin, found in a pilot screen of the LOPAC library to be a weak inhibitor of L3MBTL1 binding, was used as an intraplate control with a 16-point titration in duplicate. Following a 30 min incubation of the protein-peptide complex with compounds at room temperature, a mixture of 40 ug/mL each streptavidin-coated donor and nickel chelate acceptor AlphaScreen beads (final 10 ug/mL) was added in a 1 uL dispense for a final volume of 4 uL. Plates were incubated, protected from the light for 30 min at room temperature. Microplates were then be read on an EnVision multilabel plate reader using the 1,536 plate HTS AlphaScreen aperture (excitation time 80 ms, measurement time 240 ms).
# Potency is read from the fitted curve at half-maximal effect; tags tell the direction and shape of the fitted curve.
# Sequence of UniProt Q9Y468 (Q9Y468 whole entry, looked up): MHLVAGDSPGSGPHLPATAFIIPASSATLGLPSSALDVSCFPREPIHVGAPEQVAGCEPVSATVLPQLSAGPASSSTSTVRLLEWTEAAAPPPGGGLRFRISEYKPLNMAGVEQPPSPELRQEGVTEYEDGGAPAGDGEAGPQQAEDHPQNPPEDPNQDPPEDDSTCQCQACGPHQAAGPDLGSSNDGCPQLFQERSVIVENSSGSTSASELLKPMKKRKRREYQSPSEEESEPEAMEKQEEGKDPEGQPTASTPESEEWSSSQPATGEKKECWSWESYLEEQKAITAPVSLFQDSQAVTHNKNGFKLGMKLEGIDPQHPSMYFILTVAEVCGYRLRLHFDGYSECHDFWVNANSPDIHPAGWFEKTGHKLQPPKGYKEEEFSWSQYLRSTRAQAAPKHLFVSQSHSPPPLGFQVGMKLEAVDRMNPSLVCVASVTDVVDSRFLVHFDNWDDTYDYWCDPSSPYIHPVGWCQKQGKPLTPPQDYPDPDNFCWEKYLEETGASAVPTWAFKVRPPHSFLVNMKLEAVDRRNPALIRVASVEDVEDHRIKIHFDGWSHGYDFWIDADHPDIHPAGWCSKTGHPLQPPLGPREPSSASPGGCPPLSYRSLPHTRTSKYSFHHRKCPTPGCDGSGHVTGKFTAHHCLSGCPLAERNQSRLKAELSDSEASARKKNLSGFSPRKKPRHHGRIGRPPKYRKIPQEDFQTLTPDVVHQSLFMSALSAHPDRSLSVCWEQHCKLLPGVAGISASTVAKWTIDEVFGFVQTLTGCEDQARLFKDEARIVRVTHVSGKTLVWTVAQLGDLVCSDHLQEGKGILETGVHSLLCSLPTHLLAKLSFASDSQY
row,Compound,Potency
1,CC1CC(C)(C)NC(=S)N1CCC(=O)NCCc1ccc(Cl)cc1 (centres undefined),inactive
2,COc1ccc(C(=O)COC(=O)CNC(=O)c2ccc(Cl)cc2Cl)c(OC)c1,"inconclusive: 35.5 µM [inhibitor, single point]"
3,COc1ccc(C(=O)c2sc(Nc3ccccc3)c(C(=O)Nc3ccc(OC)c(OC)c3)c2N)cc1,"inconclusive: 20 µM [inhibitor, single point]"
4,Nc1ccc2c(c1Cl)C(=O)c1ccc(N)c(Cl)c1C2=O,"inconclusive: 39.8 µM [inhibitor, single point]"
5,COc1ccc(N2CCN(C(=O)CC34CC5CC(CC(C5)C3)C4)CC2)c([N+](=O)[O-])c1,"inconclusive: 39.8 µM [inhibitor, single point]"
6,O=C(Nc1ccccc1Br)c1ccc(N2CCCC2=O)cc1,inactive
7,CCCc1cc(C(=O)Nc2sc3c(c2C(=O)OCC)CCCC3)no1,"inconclusive: 39.8 µM [inhibitor, single point]"
8,O=C(OCc1cc(=O)n2c(n1)sc1ccccc12)c1ccc2c(=O)n3c(nc2c1)CCC3,"inconclusive: 31.6 µM [inhibitor, single point]"
9,O=C(Nc1ccc(N2CCOCC2)cc1)Nc1ccc2nc(-c3ccco3)c(-c3ccco3)nc2c1,"inconclusive: 4.47 µM [inhibitor, single point]"
10,CC(C)=CCc1c2c(c3occ(-c4ccc(O)cc4)c(=O)c3c1O)C=CC(C)(C)O2,inactive
11,COc1ccc(NC(=O)CCCCC(=O)Nc2ccc(OC)cc2)cc1,"inconclusive: 39.8 µM [inhibitor, single point]"
12,CCN(Cc1ccccc1)c1ccc(/C=N/N2CCOCC2)cc1,"inconclusive: 39.8 µM [inhibitor, single point]"
13,O=C(O)CCCN1C(=O)c2ccc(Oc3cccc([N+](=O)[O-])c3)cc2C1=O,inactive
14,COc1cc(C(=O)OCC(=O)N2CCCC2=O)cc(OC)c1C,"inconclusive: 28.2 µM [inhibitor, single point]"
15,O=C(CSc1nccn1-c1ccccc1)NO,inactive
16,O=[N+]([O-])c1ccc(N/N=C/c2ccc[nH]2)cc1,"inconclusive: 25.1 µM [inhibitor, partial curve]"
17,CN(C)c1ccc(/C=N/NC(=O)c2cccc(C(=O)N/N=C/c3ccc(N(C)C)cc3)n2)cc1,"inconclusive: 39.8 µM [inhibitor, single point]"
18,CCCC(=O)NCCCCNC(=O)CCC,inactive
19,Cc1cc(C(=O)OCC(=O)NCc2ccco2)c(C)n1-c1ccccc1,"inconclusive: 28.2 µM [inhibitor, single point]"

# Source: PubChem BioAssay AID485360 (National Center for Advancing Translational Sciences (NCATS), 2010)
